Assay results as given in patent US20240277844A1.

T1: CD20 on Ramos cells (human) (UniProt P11836)
T1 sequence (looked up): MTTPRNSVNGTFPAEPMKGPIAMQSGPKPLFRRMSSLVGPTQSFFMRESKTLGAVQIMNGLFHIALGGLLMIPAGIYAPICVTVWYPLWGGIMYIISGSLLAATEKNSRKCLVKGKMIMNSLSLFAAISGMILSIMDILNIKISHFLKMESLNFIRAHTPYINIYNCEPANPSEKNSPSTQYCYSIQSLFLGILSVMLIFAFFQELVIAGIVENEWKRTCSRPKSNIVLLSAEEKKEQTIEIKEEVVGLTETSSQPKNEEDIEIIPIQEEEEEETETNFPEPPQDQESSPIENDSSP


Tests used:
[1] = biological target: T1, CD20 on Ramos cells (human); assay: cell-based or functional assay
PN29950_LCHC = assay: SPR (Biacore), HA-tagged scFv captured on anti-HA, antibody injected, 25 C
PN77570_HCLC = assay: as above
PN78216_HCLC = assay: as above

Max Activity, CCL5 release (pg/ml), CBNK/CAR6 cells + Ramos/HiBiT [1] [pg/mL] | Max Activity, FasL release (pg/ml), CBNK/CAR6 cells + Ramos/HiBiT [1] [pg/mL] | Max Activity, Granzyme A release (pg/ml), CBNK/CAR6 cells + Ramos/HiBiT [1] [pg/mL] | Max Activity, Granzyme B release (pg/ml), CBNK/CAR6 cells + Ramos/HiBiT [1] [pg/mL] | Max Activity, IFNγ release (pg/ml), CBNK/CAR6 cells + Ramos/HiBiT [1] [pg/mL] | Max Activity, TNFα release (pg/ml), CBNK/CAR6 cells + Ramos/HiBiT [1] [pg/mL] | Ab Bind (RU) (PN29950_LCHC) | Kd (PN29950_LCHC) [nM] | koff (PN29950_LCHC) [s⁻¹] | kon (PN29950_LCHC) [M⁻¹ s⁻¹] | t½ (PN29950_LCHC) [min] | Ab Bind (RU) (PN77570_HCLC) | Ab Bind (RU) (PN78216_HCLC) | Kd (PN78216_HCLC) [nM] | koff (PN78216_HCLC) [s⁻¹] | kon (PN78216_HCLC) [M⁻¹ s⁻¹] | t½ (PN78216_HCLC) [min] | Binder | Max Activity, Cytotoxicity (%), CBNK/CAR6 cells + Ramos/HiBiT [1] [%]
8.4 | 18.1 | 641 | 204 | 70.3 | 14.2 | – | – | – | – | – | – | – | – | – | – | – | REGN4018 (bispecific antibody, from a related filing, V domains shown, part only) VH 1: QVQLVESGGGLVKPGGSLRLSCAASGFTFSNYYMSWVRQAPGKGLEWISYISGRGSTIFYADSVKGRITISRDNAKNSLFLQMNSLRAEDTAVYFCVKDRGGYSPYWGQGTLVTVSS VH 2: EVQLVESGGGLVQPGRSLRLSCAASGFTFDDYSMHWVRQAPGKGLEWVSGISWNSGSKGYADSVKGRFTISRDNAKNSLYLQMNSLRAEDTALYYCAKYGSGYGKFYHYGLDVWGQGTTVTVSS VL: [sequence of about 100 residues omitted]PITFGQGTRLEIK | 24.8
– | – | – | – | – | – | 1520 | 2.03 | 0.000545 | 269000 | 21.2 | 1.6 | 512 | 2.01 | 0.000318 | 158000 | 36.3 | REGN4336 (bispecific antibody, from a related filing, V domains shown, part only) VH 1: QVQLVESGGGVVQPGRSLRLSCAASGFTFSSYGMHWVRQAPGKGLEWVAVISYAGNNKYYADSVKGRFTVSRDNSKKTLYLQMNSLRSEDTAVYYCAKDSYYDFLTDPDVLDIWGQGTMVTVSS VH 2: EVQLVESGGGLVQPGRSLRLSCAASGFTFDDYSMHWVRQAPGKGLEWVSGISWNSGSIGYADSVKGRFTISRDNAKNSLYLQMNSLRAEDTALYYCAKYGSGYGKFYYYGMDVWGQGTTVTVSS VL: [sequence of about 100 residues omitted] | –
